Measured values taken from article PMC4336329 (PLoS ONE, 2015).
About 2,200 (0.71%) of roughly 310,000 compounds showed an effect of 50% or more. Effects have a minus sign here. The list shows a part of the results.

biological target: human ether-à-go-go-related gene (hERG) potassium channel (human, UniProt Q12809); experiment: primary screen, population patch clamp on CHO cells stably expressing hERG
Sequence (Q12809 whole entry, looked up): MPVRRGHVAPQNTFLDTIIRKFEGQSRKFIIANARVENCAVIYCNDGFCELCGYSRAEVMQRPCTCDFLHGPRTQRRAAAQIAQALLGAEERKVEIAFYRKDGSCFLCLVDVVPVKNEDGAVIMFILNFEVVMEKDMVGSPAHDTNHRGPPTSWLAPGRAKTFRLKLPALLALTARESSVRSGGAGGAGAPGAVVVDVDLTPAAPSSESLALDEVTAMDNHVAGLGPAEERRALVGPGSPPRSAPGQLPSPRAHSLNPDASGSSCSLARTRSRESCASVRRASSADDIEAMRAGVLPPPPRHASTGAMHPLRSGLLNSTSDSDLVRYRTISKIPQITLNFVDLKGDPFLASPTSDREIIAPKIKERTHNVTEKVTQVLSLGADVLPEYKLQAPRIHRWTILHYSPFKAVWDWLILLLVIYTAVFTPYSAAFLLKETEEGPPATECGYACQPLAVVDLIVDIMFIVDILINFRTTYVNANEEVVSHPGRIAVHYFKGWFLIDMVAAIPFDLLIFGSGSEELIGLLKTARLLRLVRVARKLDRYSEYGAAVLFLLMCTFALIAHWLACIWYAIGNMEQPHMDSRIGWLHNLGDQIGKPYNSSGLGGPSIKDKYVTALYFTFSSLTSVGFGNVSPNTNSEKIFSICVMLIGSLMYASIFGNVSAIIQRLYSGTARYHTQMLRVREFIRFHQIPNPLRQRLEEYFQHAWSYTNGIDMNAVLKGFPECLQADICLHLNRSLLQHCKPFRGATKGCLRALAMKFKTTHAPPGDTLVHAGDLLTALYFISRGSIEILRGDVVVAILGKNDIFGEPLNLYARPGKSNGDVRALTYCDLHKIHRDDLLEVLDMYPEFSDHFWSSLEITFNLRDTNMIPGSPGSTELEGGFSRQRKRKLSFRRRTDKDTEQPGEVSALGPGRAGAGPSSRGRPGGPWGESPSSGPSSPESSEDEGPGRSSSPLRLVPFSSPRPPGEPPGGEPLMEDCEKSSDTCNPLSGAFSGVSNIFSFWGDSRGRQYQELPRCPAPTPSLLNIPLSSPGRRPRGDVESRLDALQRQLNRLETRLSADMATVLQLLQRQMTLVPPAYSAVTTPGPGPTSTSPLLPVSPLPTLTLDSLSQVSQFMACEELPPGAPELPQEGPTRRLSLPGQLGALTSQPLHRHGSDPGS

Compound	hERG current change (%, negative = inhibition) at 1uM [%]
Cc1nc2ccccc2c2oc(C(=O)N3CCC(N4CCCCC4)CC3)cc12	-12.3
COc1ccc(N(CC(C)C)S(=O)(=O)c2nnc(NC(=O)CC(C)C)s2)cc1	16
Cc1cc(C)c(S(=O)(=O)c2cccc(Cl)c2)c(=O)[nH]1	11.3
CC1CCCCC12NC(=S)N(c1ccccc1)N2 (centres unmarked)	11.3
CCCn1c(C)nnc1SCC(=O)NC1CCCCC1	16.6
O=C(Nc1ccc2[nH]c(=O)[nH]c2c1)c1cc(F)c(F)cc1Cl	13.6
Cc1cc(=O)oc2cc(NC(=O)Cc3ccccc3[N+](=O)[O-])ccc12	14
Cc1ccc(C(=O)C2=C(O)C(=O)N(c3ncccn3)C2c2ccccc2F)o1 (centres unmarked)	23.9
Cc1ccc(-c2nnn(CC(=O)N(Cc3ccccc3)C(C(=O)NC3CCCC3)c3ccncc3)n2)o1 (centres unmarked)	-2.99
O=C(CNC(=O)N1CC(=O)Nc2ccccc21)NCCc1cccc(F)c1	22.7
Cc1cccc(NC(=O)Cn2c(=O)n(Cc3ccco3)c(=N)c3c4c(sc32)COC(C)(C)C4)c1	3
O=C(Nc1nnc(SCc2ccc(F)cc2)s1)c1ccc2c(c1)C(=O)N(c1ccccc1Cl)C2=O	21.4
CCCOc1c(Br)cc(C(=O)OCC(=O)NC(=O)c2cccn2C)cc1OC	12.6
CCCCNC(=O)C1CCC(=O)N1CCc1ccccc1 (centres unmarked)	15
COc1cccc(N/C(SC)=C(/C#N)C(N)=O)c1	2.6
COC(=O)CNC(=O)CSc1nnc(-c2ccc(OC)cc2)n1CC(C)C	10.2
CCCCCn1c(CN2CCCCC2C)nc2c1c(=O)n(C)c(=O)n2C (centres unmarked)	-6.71
CCOC(=O)c1cccc(OCC(O)CNCCOc2ccccc2F)c1 (centres unmarked)	-4.08
Cc1cc(C)nc(N/N=C/c2cc(C)n(CC(F)(F)F)c2C)n1	7.32

Compound	hERG current change (%, negative = inhibition) at 1uM [%]
CCC(=O)c1ccc2c(c1)OCCO2	11.9
O=C(CSc1nnc(NC(=O)c2ccco2)s1)Nc1cccc(F)c1	-2.93
O=C(O)CSc1nnc(-c2cccnc2)n1Cc1ccccc1	12.8
CCn1c(CNC(=O)c2ccc(OC)c(OC)c2)nnc1SCC(=O)c1ccc(OC)cc1	6.52
CC(C)CSc1nnc2c3ccccc3n(C)c2n1	-14.6
CCCn1nc(C(=O)NCC(C)(C)N2CCOCC2)c2ccccc2c1=O	-4.97
C[C@@H](NC(=O)c1nc[nH]c1C(=O)NC1CCN(C(=O)OC(C)(C)C)CC1)c1ccccc1	12.9
O=C(NCCCN1CCCCC1)c1ccc2c(c1)ncn2C1CCCC1	12.6
Fc1ccc(SCCc2cccc[nH+]2)cc1.O=P([O-])(O)O	10.6
CCN(C(=O)COc1ccccc1)C1CCCCC1	2.31
Cc1ccccc1Nc1nc(N)nc(CSCc2c(C)noc2C)n1	10.1
CC(NC(=O)C1CCCN(S(=O)(=O)c2cnc[nH]2)C1)c1ccccc1 (centres unmarked)	-3.11
Cc1ncc(CN2CCCC(C(=O)Nc3ccc(-c4cccc(F)c4)cc3)C2)n1C (centres unmarked)	-20.9
Cc1ccc(S(=O)(=O)CCC(=O)OCC(=O)c2c(N)n(CC(C)C)c(=O)n(C)c2=O)cc1	-18.9
O=c1cc(N2CCN(c3ccccc3)CC2)[nH]c(=O)n1-c1ccccc1	4.33
O=C(CCNS(=O)(=O)c1ccccc1C(F)(F)F)N1CCN(S(=O)(=O)c2cccc(F)c2)CC1	10.2
CCOn1c(=O)c(-c2cc(OC)ccc2OC)[n+]([O-])c2ccccc21	8.96
Cc1c(NC(=O)N2CCCCCC2)c(=O)n(-c2ccccc2)n1C	17.9
Cc1cc(C)nc(N2CCCC(C(=O)Nc3cc(F)ccc3C)C2)n1 (centres unmarked)	3.08

Compound	hERG current change (%, negative = inhibition) at 1uM [%]
Cc1oc(-c2cccc(F)c2)nc1CN1CCCCC1CCc1ccccn1 (centres unmarked)	-89.5
CS(=O)(=O)Nc1ccccc1Oc1ccccc1	13.1
Cc1nc2c3ccccc3nc(NNC(=O)CCC(=O)NC(C)C)n2n1	11.6
CCCCn1nnnc1NCc1ccc(OC)c(OC)c1OC	-0.552
CC(=O)O.CC(C)CC1NC(C(=O)O)Cc2c1[nH]c1ccccc21 (centres unmarked)	15.5
Cc1ccc(CC2S/C(=N/c3ccccn3)NC2=O)cc1 (centres unmarked)	14.3
COc1ccc(NC2CCCN(C(=O)CCc3ccccc3F)C2)cc1 (centres unmarked)	6.54
Br.CCN1C2=NCCCN2c2cc(C)c(C)cc21	-11.9
CCn1c(CNC(=O)c2ccc3c(c2)OCO3)nnc1SCC(=O)Nc1ccccc1F	11.6
CCOC(=O)c1c(NC(=O)CN2CCN(C(=O)C3CCCO3)CC2)sc(C)c1C (centres unmarked)	0.855
CCOC(=O)N1CCC(N(CCOC)C(=O)Nc2ccc(C)c(C)c2)CC1	-6.93
O=C(NCCCN1CCOCC1)c1sc2cc([N+](=O)[O-])ccc2c1Cl	-5.26
CCOc1cc(/C=C2\C(=O)N(c3cccc(C(=O)O)c3)N=C2C(F)(F)F)ccc1OCC(=O)Nc1ccccc1OC	12.3
OCC1(CCc2ccccc2)CCN(Cc2cnc(N3CCCC3)s2)CC1	-32.2
Cc1ccccc1Nc1nc(N)nc(CSc2n[nH]c(N)n2)n1	14.9
CN(C(=O)CCN1C(=O)/C(=C/c2ccccc2)SC1=S)C1CCS(=O)(=O)C1 (centres unmarked)	9.13
C=CCN(C(=O)CNS(=O)(=O)c1ccccc1)C(C(=O)NCCOC)c1cccnc1 (centres unmarked)	2.54
O=C1C(CSCc2ccccc2)NC(=S)N1c1ccccc1 (centres unmarked)	7.16
